# Experimental data reported in publication PMC12214610.
# How the values were obtained:
# [1] = target: Large ribosomal subunit protein bL33 (UniProt P0A7N9)
# [2] = target: DNA-binding protein HU-alpha (UniProt P0ACF0)
# UniProt P0ACF0, sequence (P0ACF0 whole entry): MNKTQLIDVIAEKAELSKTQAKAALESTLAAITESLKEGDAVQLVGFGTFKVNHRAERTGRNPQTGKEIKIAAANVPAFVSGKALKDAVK
substance,measurement,setting,value
Large ribosomal subunit protein uL1,listed as a hit,[1],yes
same,listed as a hit,[2],yes
